Experimental data from patent US20240424005A1, “DIAGNOSING, MONITORING AND TREATING NEUROLOGICAL DISEASE WITH PS[…] DERIVATIVES AND mRNA MEASUREMENTS” (NOVA MENTIS LIFE SCIENCE CORP., priority 2021, published 2024).

Tested on: red blood cells
Assay: Toxicity and oxidative stress in red blood cells

CN(C)CCc1c[nH]c2cccc(O)c12 [psilocin]
effect against oxidative stress in red blood cells: protective effect against oxidative stress
